US11136409B2, “Compositions and methods for identification, assessment, prevention, and treatment of AML using USP10 biomarkers and modulators” (Dana-Farber Cancer Institute, Inc., priority 2016, dated 2021)

Test system: Ba/F3-FLT3-ITD-F691L cells
Conditions: approximately 2-day treatment

SMILES: CC1(COc2ccc3c(c2)ncn3-c2ccc3cccc(N4CCC(N)CC4)c3n2)COC1 [crenolanib]
- Potency against F691L mutant versus Ba/F3-FLT3-ITD: rightward shift in the dose-response curve
